Screen size: about 52,000 compounds; about 1,700 (3.3%) were called active. Cut-off read from the data, not from the text of the source: active = survival mostly below about 52% (no sharp cut-off); inactive = mostly above about 56%. The list shows a part of the results.

This test has as its system Wild type. In words: S. aureus survival, RN4220 and DeltatarO strains – OD600, teichoic acid synthesis inhibitors, primary screen (AID 463173). The settings on record: S. aureus RN4220 wild type/DeltatarO growth, OD600, 18 h, stronger effect = lower value, screened at 18.75 µg/mL (by protocol).
For `COc1cc(NC(=O)Cn2cnc3c2c(=O)n(C)c(=O)n3C)c(OC)cc1Cl`, the survival was inactive: 74%.

On to `CCOC(=O)c1c(NC(=O)/C(C#N)=C/c2ccccc2)sc2c1CCC2`, for which the survival is inactive: 72%. For `CCOc1ccccc1NC(=O)c1c(NCc2cccs2)sc2c1CCCCC2`, the survival is inactive: 74%.

As to `CCOc1ccc(NC(=O)c2c(NC(=O)c3ccccc3F)sc3c2CCC3)cc1`, the survival is inactive: 134%. The same measure for `CCOc1cc(/C=C(\C#N)C(=O)Nc2ccc(C)cc2)ccc1OCc1cc(=O)n2nc(CC)sc2n1`: inactive: 94%; for `Cc1cc(C)nc(SCCC(=O)Nc2ccccc2)n1`: inactive: 106%.

For the compound `O=C(COc1ccccc1)NCC1CCCO1` (stereo not drawn), the survival was inactive: 115%. With `COc1ccc2c(c1)CC(C(=O)NCCCN1CCN(c3ccccc3F)CC1)CO2` (stereo not drawn) the figure was inactive: 68%. The same measure for `C#CCn1cnc2c(cnn2-c2ccc(F)cc2)c1=O`: inactive: 78%; for `CCC(=O)N1CCc2cc(Br)cc(S(=O)(=O)CCC(=O)Nc3ccc(C)c(F)c3)c21`: inactive: 72%; for `Cc1ccc(C)c2nc(SCC(=O)OC(C)C)c(C#N)cc12`: inactive: 100%. With `COc1cccc2c1Oc1ncccc1N(C(=O)CCC(=O)NC(C)C)C2` the figure was inactive: 70%. With `CCC(=O)N1CCc2cc(CNS(=O)(=O)c3ccc(NC(=O)CC(C)C)cc3)ccc21`, the survival is inactive: 75%.

Regarding `CCc1c(C)sc2c1CCN(C(=O)Nc1cc(Cl)c(OC)cc1OC)C2c1ccccc1` (stereo not drawn), the survival is inactive: 45%. With `CCOC(=O)/C(C#N)=C/c1ccc(N2CCCCC2)o1`, the survival was inactive: 126%. With `CCN(CC)S(=O)(=O)c1ccc(NC(=O)c2c(C)oc3ncnc(N4CCOCC4)c23)cc1` the figure was inactive: 73%. The same measure for `CCn1c(C)c(C)c2cc(C(=O)NCc3ccc(OC)cc3OC)ccc21`: inactive: 84%; for `Cc1[nH]c2ccc(-c3nnc(SCc4ccc(F)cc4)o3)cc2c1C`: inactive: 103%. With `COc1ccc2c(c1)-c1nc(/N=C/c3ccc(C)o3)sc1CC2` the figure was inactive: 114%.

On to `CC(C)(C)c1ccc(C2=NC(C)(C)N(CC(=O)Nc3ccc(F)c(F)c3)C2=O)cc1`, for which the survival is inactive: 98%. The same measure for `Cc1ccc(-c2nnc(Nc3ccc(OCC(N)=O)cc3)c3ccccc23)cc1S(=O)(=O)N(C)C`: inactive: 109%. The same measure for `COc1ccc(-c2onc(C)c2C)cc1S(=O)(=O)N1CCN(c2ccc(Cl)cc2)CC1`: inactive: 57%; for `CC(C)OC(=O)c1c(NC(=O)COc2cccc(Br)c2)sc2c1CCCC2`: inactive: 102%. As to `O=C(CSc1nc2c([nH]c3ccccc32)c(=O)n1-c1ccccc1)N1CCOCC1`, the survival is inactive: 75%. `CC(CNC(=O)C1CCN(S(=O)(=O)c2ccc3c(ccn3C)c2)CC1)c1ccccc1` (stereo not drawn): the survival is inactive: 73%. As for `CCN(CC)CCn1c(-c2ccccc2)csc1=Nc1ccccc1`, the survival was inactive: 45%.

On to `Cc1ccc(OCCn2c(-c3ccc(Br)cc3)nc3ccccc3c2=O)cc1C`, for which the survival is inactive: 70%.

As to `O=C1CC(c2cccc(O)c2)c2cc3c(cc2N1)OCO3` (stereo not drawn), the survival was inactive: 85%.

Consider `CCCCN(CC)CCCNC(=O)C1CCCN(c2ncnc3c2nc2n3CCCCC2)C1` (stereo not drawn), for which the survival was inactive: 71%. With `COc1ccc(NC(=O)Cn2c(=O)n(Cc3ccccc3Cl)c(=O)c3cc(OC)c(OC)cc32)cc1OC` the figure was inactive: 73%; with `Nc1nonc1C(=O)NCCNCc1cccc(Cl)c1Cl`, inactive: 71%; with `O=C(COc1ccccc1[N+](=O)[O-])N1CCC(c2nc3ccccc3o2)CC1`, inactive: 78%. In the case of `Cc1c(CC(=O)NCCc2ccccc2F)c(=O)oc2cc(O)c(Cl)cc12`, the survival is inactive: 72%. With `O=C(O)c1ccc(S(=O)(=O)c2ccc3c(c2)C(=O)N(C2CCCCC2)C3=O)cc1` the figure was inactive: 109%; with `Cc1ccc(NC(=O)c2c(C)oc3ccc(O)c(CN4CCCCCC4)c23)cc1`, inactive: 108%. Turning to `CC(C)(C)NC(=O)CSc1nncn1NCc1ccccc1`, the survival was inactive: 99%.

Take `CC(C)S(=O)(=O)c1oc(-c2cccs2)nc1S(=O)(=O)c1ccc(F)cc1`: the survival was inactive: 22%. The same measure for `Cc1ccc(-n2ncc3c(N(CC(C)C)CC(C)C)ncnc32)c(C)c1`: inactive: 71%; for `CCN(CCCNC(=O)c1cc(Nc2ccc(OC)cc2OC)nc2ccccc12)c1cccc(C)c1`: inactive: 92%; for `O=C(CN1CCC(c2nc3ccccc3s2)CC1)N1CCCCC1`: inactive: 98%. The same measure for `Cc1ccc(CCNC(=O)c2c(C)oc3nc(C)nc(N4CCOCC4)c23)cc1`: inactive: 124%; for `Cn1cc(-c2cc3n(n2)CCC(=O)N3CC(=O)NCc2ccc(Cl)cc2)c2ccccc21`: inactive: 75%; for `CCOc1ccc(CNC(=O)c2ccc3c(c2)nnn3C2CCCC2)cc1`: inactive: 72%. With `Cc1cccc(Cn2c(=O)n(Cc3ccc4c(c3)OCO4)c(=O)c3oc4ccccc4c32)c1` the figure was inactive: 88%; with `CCc1ccccc1NC(=O)c1cc2nc(-c3ccc(OC)c(OC)c3)cc(C(F)(F)F)n2n1`, inactive: 79%; with `Cc1ccc(S(=O)(=O)C(CNC(=O)Cc2ccc(Cl)cc2)c2cccs2)cc1` (stereo not drawn), inactive: 94%. Consider `CC(C)c1c(O)nc(SCCN2CCOCC2)[nH]c1=O`, for which the survival is inactive: 95%. The same measure for `CCc1ccc2oc(-c3ccc(N)cc3)nc2c1`: inactive: 115%.

For `CC(C)C(=O)Nc1cccc(C(=O)Nc2nnc(CC(C)(C)C)s2)c1`, the survival was inactive: 73%. For the compound `O=c1oc2c(CN3CCCC3)c(O)ccc2cc1-c1ccccc1`, the survival is inactive: 140%.

As for `COc1ccccc1N1CCN(C(=O)Nc2cn(CC(C)C)c(=O)c3ccccc23)CC1`, the survival was inactive: 81%. On to `CCOCCCNC(=O)c1c(NC(=O)c2cc(=O)c3ccccc3o2)sc2c1CCC2`, for which the survival was inactive: 80%. With `COc1cc2ccccc2cc1C(=O)Nc1ccc2oc(-c3ccc(Cl)cc3)nc2c1` the figure was inactive: 91%. With `COC(=O)c1ccc(NC(=O)Cn2c(=O)nc(-c3ccccc3)c3ccccc32)cc1` the figure was inactive: 99%. With `CCOC(=O)c1ccc(NC(=O)Cn2ncc3c(C)n(Cc4ccccc4F)c(C)c3c2=O)cc1` the figure was inactive: 88%; with `CCCCN(C)CC(O)Cn1cc(/C=C/C(=O)c2ccc(C)cc2)c2ccccc21` (stereo not drawn), active: 15%. Take `COc1ccc(NC(=O)c2c(NCc3cccs3)sc3c2CCCC3)cc1`: the survival was inactive: 80%. With `O=C(Nc1ccc(C(=O)OCc2cc(=O)n3c4c(sc3n2)CCCC4)cc1)c1ccc(Cl)cc1` the figure was inactive: 81%.
